Experimental data as given in patent publication US10273233B2, “Inhibitors of influenza viruses replication” (Vertex Pharmaceuticals Incorporated, priority 2015, dated 2019).
Where a name gives a salt, the structure may show the parent alone.

Tests used:
[1] = remark: listed apart in the source
Description: For the HCl salt, a 30% PEG300/0.5% MC vehicle was used to prepare the suspension.

SMILES	chemical stability in solution (5 days, 0.15 mg/ml)	chemical stability in suspension (5 days, 2 mg/ml)	change in % area (suspension 2 mg/ml at 40° C. for 5 days, pH 3, no new impurities) [% area]	physical form stability in FaSSGF [1]	physical form stability in FaSSIF [1]	lower concentration levels compared to Hydrate 3 of Compound (1) ([1]; FaSSGF) [fold]	physical stability in suspension vehicle [1]	increase in concentrations compared to Hydrate 3 of Compound (1) ([1]; FaSSGF) [fold]
CC(C)(C)[C@@H](CC(=O)O)Nc1nc(-c2c[nH]c3ncc(F)cc23)ncc1F [Hydrate 3 of Compound (1)]	chemically stable over a pH range of 3 to 9	chemically stable over a pH range of 4 to 9	0.05	remained physically stable	remained physically stable throughout the in vitro dissolution study			
CC(C)(C)[C@@H](CC(=O)O)Nc1nc(-c2c[nH]c3ncc(F)cc23)ncc1F [H2SO4 Salt]				remained physically stable	readily converted to Hydrate 2 of Compound (1)	10		
CC(C)(C)[C@@H](CC(=O)O)Nc1nc(-c2c[nH]c3ncc(F)cc23)ncc1F [HCl Salt]				converted to an amorphous material	readily converted to Hydrate 2 of Compound (1)		physically unstable	8
